Results from PubChem BioAssay AID2675 (National Center for Advancing Translational Sciences (NCATS), 2010).
Screen size: about 280,000 compounds; about 100 (0.036%) were called active. The shares of active, inactive and inconclusive entries below differ from those in the screen. Calls follow the shape of the dose curve; as a rule, active = well fitted inhibition curve with a large enough effect in the signal ratio, with a control signal flat (not every such curve was filed as active); inconclusive = small, poorly fitted or top-dose-only effect, or effect the other way, or a change in a side signal; inactive = no such curve, though single readings can be large or run the other way; the % refers to the signal ratio. A potency beside an inconclusive call is a rough fit, not a confirmed value. “Side channel” marks fits to a control or component signal instead of the main read-out.

The compounds below were run against Muscleblind-like protein 1 (Homo sapiens) (UniProt Q9NR56) (assay: qHTS Assay for Inhibitors of MBNL1-poly(CUG) RNA binding). Conditions: TR-FRET MBNL1-His/biotin-(CUG)12 binding, 665/545 ratio; activity change, negative = inhibition: at 57.5 µM (top of the series).
UniProt Q9NR56, sequence (Q9NR56 whole entry, looked up): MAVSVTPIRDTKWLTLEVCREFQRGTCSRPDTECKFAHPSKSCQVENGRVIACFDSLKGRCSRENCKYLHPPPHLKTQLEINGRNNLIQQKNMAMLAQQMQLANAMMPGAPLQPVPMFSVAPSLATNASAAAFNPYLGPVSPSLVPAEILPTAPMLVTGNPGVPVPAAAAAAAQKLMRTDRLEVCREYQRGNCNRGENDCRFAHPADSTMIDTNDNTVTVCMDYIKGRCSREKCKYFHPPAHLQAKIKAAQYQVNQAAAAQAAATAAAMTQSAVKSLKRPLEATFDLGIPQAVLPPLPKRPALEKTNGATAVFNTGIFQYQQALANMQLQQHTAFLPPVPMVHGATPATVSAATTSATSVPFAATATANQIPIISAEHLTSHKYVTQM
Method in brief: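 Compounds (final 92 nM to 58 uM) are added to His-tagged MBNL1 and biotin-(CUG)12, then terbium anti-His antibody and streptavidin-XL665 (5 nM final). After 60 min at room temperature, the 665/545 nm ratio is read.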
% is scaled to controls: 0 for no effect and ±100 for the full control effect; potency is read from the fitted curve at half-maximal effect; tags tell the direction and shape of the fitted curve or compound fluorescence and quenching.

Structure (SMILES)	Potency	activity change, negative = inhibition
Cc1nc(NCCc2ccccc2F)c(C#N)c(C)c1[N+](=O)[O-]	inconclusive: 8.91 µM [quencher, side channel, single point]	
CCC(=O)Nc1ccc(-c2ccc(N3CCC(C)CC3)nn2)cc1	inconclusive: 10 µM [quencher, side channel, partial curve]	
CCOC(=O)C1=C(C)NC2=C(C(=O)C(C(=O)OCC)C(c3ccco3)C2)C1c1ccccn1 (stereo unspecified)		inactive: 6.48%
NS(=O)(=O)c1cccc(NC(=O)COC(=O)c2cc(Cl)ccc2[N+](=O)[O-])c1	inconclusive: 14.1 µM [quencher, side channel, partial curve]	
CC(=O)Nc1ccc(NC2=CC(=O)c3ccccc3C2=O)cc1	inconclusive: 1.41 µM [quencher, side channel, full curve]	
COc1ccc(-c2ccnc3ncnn23)cc1	inconclusive: 17.8 µM [quencher, side channel, partial curve]	
Cn1c(SCC(=O)NCc2ccc3c(c2)OCO3)nnc1-c1cc2ccccc2cc1O		inactive: 7.06%
C=CCSc1nnc(-c2ccncc2)n1-c1ccc(OCC)cc1	inconclusive: 39.8 µM [quencher, side channel, single point]	
Cc1ccc(S(=O)(=O)n2cc(-c3ccccc3)c(N)n2)cc1		inactive: 3.46%
NS(=O)(=O)c1ccc(Nc2nc(-c3ccc(O)cc3O)cs2)cc1	inconclusive: 20 µM [quencher, side channel, partial curve]	
Cc1ccc(C(=O)Nc2ccc3c(c2)OCO3)o1		inactive: -4.18%
COc1ccccc1CNC(=O)C1CCCN(S(=O)(=O)c2cccc3nonc23)C1 (stereo unspecified)	inconclusive: 7.94 µM [quencher, side channel, partial curve]	
C=CCNc1nc2c(c(=O)n(C)c(=O)n2C)n1Cc1ccc(F)cc1		inactive: -3.64%
CCC(C)(C)n1nnnc1C(c1cc2cc(C)cc(C)c2[nH]c1=O)N1CCN(C(=O)c2ccco2)CC1 (stereo unspecified)		inactive: 1.25%
CCN(CC)C(=O)c1ccc(Nc2nnc(-c3ccc(O)cc3)c3ccccc23)cc1	inconclusive: 17.8 µM [quencher, side channel, partial curve]	
COc1ccc(-c2c(-c3ccc(OCC(=O)NN)cc3O)n[nH]c2C)cc1OC		inactive: -3.19%
CN1CCN(c2ccc(NC(=O)c3ccc([N+](=O)[O-])o3)cc2Cl)CC1	inconclusive: 7.08 µM [quencher, side channel, partial curve]	
Cc1ccc(N2CCN(CCc3nc4cc(NS(C)(=O)=O)ccc4n3C)CC2)cc1		inactive: 4.1%
CCOC(=O)CSc1ncc(-c2ccc([N+](=O)[O-])cc2)[nH]1	inconclusive: 17.8 µM [quencher, side channel, partial curve]	
Cc1ccc(C2=NS(=O)(=O)N(C)C(C(=O)Nc3ccc4c(c3)OCO4)=C2)cc1	inconclusive: 31.6 µM [quencher, side channel, single point]	
Cc1ccc(C#N)c(SCc2nnc(-c3ccc(Cl)cc3)o2)n1	inconclusive: 3.55 µM [quencher, side channel, single point]	

Structure (SMILES)	Potency	activity change, negative = inhibition
CC1(C)C2C/C(=N\O)C(C)(/[N+]([O-])=C/c3cccc([N+](=O)[O-])c3)CC21 (stereo unspecified)	inconclusive: 31.6 µM [quencher, side channel, single point]	
COc1ccc(-c2csc(Nc3ncccc3C)n2)cc1OC		inactive: -1%
CC1CN(C(=O)/C=C/c2ccc([N+](=O)[O-])s2)CC(C)O1 (stereo unspecified)	inconclusive: 22.4 µM [quencher, partial curve]	
O=C1c2ccccc2C(=O)C1c1ccc(Br)cc1	inconclusive: 25.1 µM [quencher, side channel, single point]	
COc1ccc(NC(=S)NNC(=O)c2ccccc2OC(F)F)cc1		inactive: 4.4%
COc1ccc2cc(C(=O)C3CCCN(C(=O)c4csnn4)C3)ccc2c1 (stereo unspecified)	inconclusive: 25.1 µM [quencher, side channel, single point]	
CCCn1c(N)c(C(c2ccc(OC)cc2)N2CCN(c3ccccc3)CC2)c(=O)[nH]c1=O (stereo unspecified)		inactive: -5.25%
CCOc1ccc(-c2nc(N)ncc2-c2ccc(Cl)cc2)c(O)c1	inconclusive: 35.5 µM [fluorescent, side channel, single point]	
O=C(/C=C/c1ccco1)NC(=S)Nc1ccc(C(=O)O)cc1	inconclusive: 12.6 µM [quencher, side channel, partial curve]	
CS(=O)(=O)N1CCC(C(=O)N2CCN(c3ccccc3F)CC2)CC1		inactive: -5.21%
COc1ccc2cc(-c3nc4ccccc4n3C)c(=O)oc2c1	inconclusive: 5.01 µM [quencher, side channel, full curve, poor fit]	
CCO/C=C1\C(=O)N(c2ccccc2)C(=O)c2ccccc21		inactive: -5.9%
O=C(CCC1CCCC1)N1CCN(C(=O)C2CC2)CC1	inconclusive: 1 µM [fluorescent, side channel, full curve, poor fit]	
CCN(CC)CCCN(CC(=O)N(C)Cc1ccccc1)C(=O)c1ccc([N+](=O)[O-])cc1	inconclusive: 15.8 µM [quencher, side channel, partial curve]	
COc1ccc([N+](=O)[O-])cc1N(CC(O)CN1C(=O)NC(C)(C)C1=O)S(=O)(=O)c1ccccc1 (stereo unspecified)	inconclusive: 35.5 µM [quencher, side channel, single point]	
O=C(CSc1nc2nc3c(cc2c(=O)n1-c1ccccc1)CCCC3)Nc1ccccc1	inconclusive: 0.1 µM [fluorescent, side channel, full curve]	
CC(=O)c1ccc(NC(=S)Nc2cccc3cnccc23)cc1	inconclusive: 28.2 µM [quencher, side channel, partial curve]	
O=S(=O)(NCCC(c1ccc(F)cc1)c1ccco1)c1ccccc1 (stereo unspecified)		inactive: -0.369%
C=CCn1c(SCC(=O)Nc2ccc(-c3nc4ccc(C)cc4s3)cc2)nnc1-c1ccccc1	inconclusive: 1.41 µM [fluorescent, side channel, partial curve]	
O=C(COC(=O)c1cc[n+]([O-])cc1)Nc1ccc(Cl)cc1[N+](=O)[O-]	inconclusive: 15.8 µM [quencher, partial curve]	
CN(C)S(=O)(=O)c1ccc(NCC2COc3ccccc3O2)c([N+](=O)[O-])c1 (stereo unspecified)	inconclusive: 25.1 µM [quencher, side channel, partial curve]	

Structure (SMILES)	Potency	activity change, negative = inhibition
CCOC(=O)/C(C#N)=C/c1c(N2CCCCCC2)nc2ccccn2c1=O	inconclusive: 17.8 µM [quencher, side channel, partial curve]	
C[n+]1c2n(c3ccccc31)N=C(c1ccc(Cl)cc1)CS2	inconclusive: 20 µM [quencher, side channel, single point]	
COc1ccc(C(=O)C2CCCN(Cc3ccc4nonc4c3)C2)cc1OC (stereo unspecified)	inconclusive: 8.91 µM [quencher, side channel, partial curve]	
CC[n+]1ccc(C)c2cc(SC(F)(F)F)ccc21	inconclusive: 22.4 µM [quencher, side channel, partial curve]	
Cc1c(OCC(=O)N(C)C)ccc2c(-c3ccccc3)cc(=O)oc12	inconclusive: 25.1 µM [quencher, side channel, single point]	
COc1ccc(NC(=O)Nc2ccc3nccnc3c2)cc1	inconclusive: 14.1 µM [quencher, side channel, partial curve]	
Cc1ccc(NC2(C#N)C(=O)Nc3ccccc32)cc1C (stereo unspecified)	inconclusive: 8.91 µM [quencher, side channel, partial curve]	
COc1ccc2cc(C(=O)NCCO)sc(=O)c2c1OC	inconclusive: 14.1 µM [quencher, side channel, partial curve]	
CC(C)c1nnc(NC(=O)c2c(O)c3cccc4c3n(c2=O)CCC4)s1	inconclusive: 4.47 µM [fluorescent, side channel, single point]	
CC(=O)Oc1ccc(C23CC4CC(CC(C4)C2)C3)cc1C(=O)O	inconclusive: 1.58 µM [quencher, side channel, full curve]	
CC(C)(C)C(=O)Nc1sc2c(c1C(=O)Nc1ccccn1)CCCC2		inactive: -0.0414%
COc1cc2c(cc1OC)CN(CC(=O)NC(=O)NC1CCCCC1)CC2	inconclusive: 3.98 µM [fluorescent, side channel, single point]	
Cc1nn(-c2ccccc2)c(N)c1N=Nc1cccc(S(=O)(=O)N2CCOCC2)c1	inconclusive: 6.31 µM [quencher, partial curve]	
O=C(CCc1ccccc1)Nc1ncc([N+](=O)[O-])s1	inconclusive: 15.8 µM [quencher, side channel, partial curve]	
CC1(C)CC1C(=O)Nc1ccc([N+](=O)[O-])cc1Br (stereo unspecified)	inconclusive: 15.8 µM [quencher, side channel, single point]	
COc1ccc(CC(=O)NCc2nnc(SCc3ccc([N+](=O)[O-])cc3)n2C)cc1	inconclusive: 25.1 µM [quencher, side channel, partial curve]	
CCOC(=O)c1ccc(NCCOC)c([N+](=O)[O-])c1	inconclusive: 15.8 µM [quencher, partial curve]	
CCCSc1nnc(NC(=O)Nc2ccccc2OC)s1		inactive: 0.274%
COC(=O)c1ccc(S(=O)(=O)c2ccc([N+](=O)[O-])cc2)cc1	inconclusive: 3.55 µM [quencher, side channel, full curve]	
